Patent US20250084172A1 (23ANDME, published 2025)

How the values were obtained:
[1] = target: T1, human soluble ULBP1 (hULBP1) (human, UniProt Q9BZM6 26-215); test: SPR (BIACORE 8K, 37 C); hNKG2D-Fc captured on Protein A, soluble ligand injected
T1 construct: also called sULBP1
T1 sequence: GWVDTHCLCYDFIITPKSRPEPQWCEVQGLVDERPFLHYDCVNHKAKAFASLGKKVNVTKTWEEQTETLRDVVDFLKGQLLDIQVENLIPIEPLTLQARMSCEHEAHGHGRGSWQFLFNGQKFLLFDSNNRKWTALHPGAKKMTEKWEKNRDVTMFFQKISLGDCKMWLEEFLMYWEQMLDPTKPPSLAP

[2] = target: T2, human soluble ULBP5 (hULBP5) (human, UniProt Q6H3X3 26-218); test: as above
T2 construct: also called sULBP5
T2 sequence: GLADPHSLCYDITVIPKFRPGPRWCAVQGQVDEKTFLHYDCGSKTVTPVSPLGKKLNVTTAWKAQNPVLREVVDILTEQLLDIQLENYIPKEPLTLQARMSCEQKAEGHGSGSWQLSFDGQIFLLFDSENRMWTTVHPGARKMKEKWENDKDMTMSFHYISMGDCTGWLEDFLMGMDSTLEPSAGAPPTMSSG

[3] = target: T3, human soluble MICA (hMICA) (human, UniProt Q29983 24-308, limits assumed); test: as above
T3 construct: also called sMICA

[4] = target: T4, human soluble ULBP3 (hULBP3) (human, UniProt Q9BZM4 30-216); test: as above
T4 construct: also called sULBP3
T4 sequence: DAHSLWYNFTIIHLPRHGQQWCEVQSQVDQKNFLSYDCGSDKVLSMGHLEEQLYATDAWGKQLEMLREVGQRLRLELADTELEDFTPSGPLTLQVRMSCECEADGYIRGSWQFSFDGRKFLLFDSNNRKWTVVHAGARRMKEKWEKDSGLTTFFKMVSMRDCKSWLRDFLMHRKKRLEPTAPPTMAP

[5] = target: T5, human soluble ULBP2 (hULBP2) (human, UniProt Q9BZM5 26-216); test: as above
T5 construct: also called sULBP2
T5 sequence: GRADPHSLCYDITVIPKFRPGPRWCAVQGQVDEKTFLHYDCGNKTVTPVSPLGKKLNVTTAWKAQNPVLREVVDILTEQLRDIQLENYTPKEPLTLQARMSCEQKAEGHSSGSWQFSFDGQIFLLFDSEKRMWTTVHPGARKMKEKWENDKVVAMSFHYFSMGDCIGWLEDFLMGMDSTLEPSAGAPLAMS

[6] = target: T6, human soluble ULBP4 (hULBP4) (human, UniProt Q8TD07 31-225); test: SPR (BIACORE 8K, 37 C); hNKG2D-Fc captured on Protein A chip, soluble ligand injected
T6 construct: also called sULBP4
T6 sequence: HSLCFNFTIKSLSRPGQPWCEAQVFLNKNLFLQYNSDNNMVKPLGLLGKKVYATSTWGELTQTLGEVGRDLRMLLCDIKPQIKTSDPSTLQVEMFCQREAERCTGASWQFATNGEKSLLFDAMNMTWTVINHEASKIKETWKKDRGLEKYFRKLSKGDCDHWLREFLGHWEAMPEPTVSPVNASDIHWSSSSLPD

B1: hNKG2D-Fc (human NKG2D 78-216 with C-terminal long huFc-Flag tag) (Fc fusion)
chain: FLNSLFNQEVQIPLTESYCGPCPKNWICYKNNCYQFFDESKNWYESQASCMSQNASLLKVYSKEDQDLLKLVKSYHWMGLVHIPTNGSWQWEDGSILSPNLLTIIEMQKGDCALYASSFKGYIENCSTPNTYICMQRTVGGGGSENLYFQGGGGS[… human IgG1 Fc …]DYKDDDDK
- Kd [1]: 125 nM
- Kd [2]: 207 nM
- Kd [3]: 79 nM
- Kd [4]: 594 nM
- Kd [5]: 220 nM
- binding result [6]: no binding (tested: 2 µM (highest concentration injected))
